# Reference: PubChem BioAssay AID686978 (National Center for Advancing Translational Sciences (NCATS), 2013)
# Among all 420,000 compounds or so, about 64,000 (15%) were called active. Inconclusive results, whose numbers are uncertain, are shown with a selection of clear calls. Calls come from the whole dose curve; as a rule, active = well fitted inhibition curve with a large enough effect; inconclusive = small, poorly fitted or top-dose-only effect; inactive = flat fitted curve, though single readings scatter. Potencies of inconclusive entries are left out as doubtful fits.
# Assay: qHTS for Inhibitors of human tyrosyl-DNA phosphodiesterase 1 (TDP1): qHTS in cells in absence of CPT; note: nearly all actives have a fitted effect of over 55% in size
# Conditions: DT40 Tdp1-/- hTDP1 cells, no CPT, ATP luminescence, 48 h; activity change, negative = growth inhibition: at 46.2 µM (top of the series)
# Method in brief: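 DT40 Tdp1-/-;hTDP1 cells, no CPT (DMSO vehicle only), 400 cells/well; compounds pin-transferred; ≥48 hr, 37 °C; CellTiter-Glo 30 min RT dark, luminescence read.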
# % is set by controls: 0 for no effect and ±100 for the full control effect; potency is the fitted concentration of half-maximal effect; tags give direction and shape of the fitted curve.
SMILES,"activity change, negative = growth inhibition",Potency
CCc1ccc(NC(=O)C(C)Oc2nnc(-c3cccs3)c(-c3cccs3)n2)cc1 (stereo not drawn),inconclusive: -32.1% [inhibitor],–
COc1cccc(C(=O)Nc2nc3ccc(S(=O)(=O)N4CCCC4)cc3s2)c1,–,active: 5.17 µM
CCn1c(SCc2nc3ccccc3s2)nc2cc(S(=O)(=O)N3CCOCC3)ccc21,–,"inconclusive [inhibitor, single point]"
COc1ccc(-n2nc(C(=O)NCC(=O)NCCN(C)C)c3ccccc3c2=O)cc1,inactive: 1.96%,–
CCCC(=O)NCc1cc(-c2nn(C)c(=O)c3ccccc23)ccc1OC,–,"inconclusive [inhibitor, single point]"
Cc1ccccc1C(=O)NCCN1CCC(n2c(=O)[nH]c3ccccc32)CC1,inactive: -22.6%,–
CCS(=O)(=O)C(=C(Nc1ccc(OC)cc1)Nc1ccc(OC)cc1)S(=O)(=O)CC,–,"inconclusive [inhibitor, single point]"
COc1ccc(CCNC(=O)CN(Cc2ccc(Cl)cc2)S(C)(=O)=O)cc1,–,"inconclusive [inhibitor, single point]"
O=C1CC(c2ccccc2)n2nc(NC(=O)c3ccccn3)nc2N1 (stereo not drawn),–,"inconclusive [inhibitor, single point]"
CCC(=O)N1CCc2cc(S(=O)(=O)CCC(=O)NCCC3=CCCCC3)ccc21,inactive: -29.3%,–
CN(CC(=O)Nc1cccc(F)c1)C(=O)c1cc(-c2ccco2)nc2ccccc12,–,"inconclusive [inhibitor, single point]"
Nc1nc(NCc2c(F)cccc2Cl)nn1-c1ccccc1,inactive: -24%,–
Cc1cc(OCC(O)CN(C)C(=O)C(C)Oc2ccccc2)ccc1Cl (stereo not drawn),–,"inconclusive [inhibitor, single point]"
CC(=O)Nc1ccc(NC(=O)CSc2nccn2Cc2ccc3c(c2)OCO3)cc1,–,"inconclusive [inhibitor, single point]"
COc1ccccc1C(CCN(Cc1ccccc1)C(C)=O)c1ccco1 (stereo not drawn),–,active: 16.4 µM
COc1ccccc1/C=C/C(=O)Nc1cccc(S(=O)(=O)N2CCOCC2)c1,–,"inconclusive [inhibitor, single point]"
COc1ccc(-c2cc(C(=O)Oc3ccc(C)cc3)c3ccccc3n2)cc1,–,"inconclusive [inhibitor, partial curve]"
CCCCC(=O)Nc1ccc(C(=O)NNC(=S)NC(=O)c2ccco2)cc1,–,active: 23.1 µM
Cc1onc(-c2ccccc2)c1C(=O)Nc1ccc(NC(=O)c2c(-c3ccccc3)noc2C)cc1,inactive: -18.9%,–
CC12CCC(=O)N1C(C(=O)NNC(=O)COc1cccc(C(F)(F)F)c1)CS2 (stereo not drawn),inactive: -16.6%,–
c1coc(-c2nc3nc4ccccc4nc3n2CC2CCCO2)c1 (stereo not drawn),–,"inconclusive [inhibitor, partial curve]"
COc1ccc(NC(=S)N2CCN(c3ccc([N+](=O)[O-])cc3)CC2)cc1OC,–,active: 11.6 µM
CCCNC(=O)C1CCN(c2cc(-c3ccccc3)nc3ncnn23)CC1,inactive: -17.4%,–
CCN(CC(=O)Nc1ccccc1OC)Cc1csc(CC(=O)Nc2ccc(C)cc2)n1,–,active: 16.4 µM
COc1cccc(N2CCN(c3ccc4nnc(CCC(=O)N5CCN(C)CC5)n4n3)CC2)c1,–,"inconclusive [inhibitor, single point]"

SMILES,"activity change, negative = growth inhibition",Potency
CCOC(=O)c1nn(-c2cccc(C)c2)c2nc(-c3ccccc3)c(C#N)c(=O)n12,–,"inconclusive [inhibitor, single point]"
C=CCOc1ccc(C2/C(=C(/O)c3ccc4c(c3)CC(C)O4)C(=O)C(=O)N2CCCN2CCOCC2)cc1 (stereo not drawn),–,"inconclusive [inhibitor, single point]"
CC(C)(C)C1CCc2onc(C(=O)NCc3ccc(F)cc3)c2C1 (stereo not drawn),–,"inconclusive [inhibitor, single point]"
CCN(C(=O)CSc1nc2cc(C(F)(F)F)ccc2n1Cc1ccccc1)C1CCS(=O)(=O)C1 (stereo not drawn),–,"inconclusive [inhibitor, single point]"
Cc1nn(CCC(N)=O)c2nc(-c3cccs3)cc(C(F)(F)F)c12,–,"inconclusive [inhibitor, partial curve]"
Cc1ccc(-n2c(Cc3cccn3C)nnc2SCC(=O)N2CCN(c3ccccc3)CC2)cc1,–,"inconclusive [inhibitor, single point]"
CN(CCc1ccccc1)C(=O)c1ccc(NC(=O)Cc2ccc(NC(=O)C3CCN(C(=O)C4CC4)CC3)cc2)cc1,–,"inconclusive [inhibitor, partial curve]"
Cc1ccccc1CC1(CO)CCCN(C(=O)c2cc(Cl)ccc2F)C1 (stereo not drawn),–,"inconclusive [inhibitor, single point]"
CCCC1=C(C(=O)OCC)C(/C=C/c2ccccc2)n2ncnc2N1 (stereo not drawn),–,active: 12.6 µM
O=C(O)c1cc(Nc2nc(N3CCOCC3)nc(N3CCOCC3)n2)ccc1Cl,inactive: -0.366%,–
COc1cccc(CNC(=O)C2CCCN(S(=O)(=O)c3c(C)noc3/C=C/N(C)C)C2)c1 (stereo not drawn),inactive: -31.3%,–
Cc1[nH]c2ccccc2c1C(=O)C(=O)N1CCN(c2cccc(Cl)c2)CC1,–,"inconclusive [inhibitor, single point]"
CCCCC1(Br)C(=O)N(c2ccccc2)N(c2ccccc2)C1=O,–,active: 16.4 µM
COc1ccc(C(CCN(Cc2ccc(OC)c(OC)c2)C(C)=O)c2ccccc2)cc1 (stereo not drawn),–,active: 20.6 µM
O=C(Cc1ccccc1)Nc1c(C(=O)c2ccccc2)oc2ccccc12,inactive: -14%,–
COc1ccc(CNC(=O)c2cc3cc4ccc(C)cc4nc3o2)cc1,–,active: 23.1 µM
CCOC(=O)c1c(NC(=O)COc2ncnc3sccc23)sc2c1CCC2,–,"inconclusive [inhibitor, single point]"
CCc1ccc(C(=O)COC(=O)C(Cc2c[nH]c3ccccc23)NC(=O)c2ccc(CC)cc2)cc1 (stereo not drawn),–,"inconclusive [inhibitor, partial curve]"
CC1CN(c2ccc([N+](=O)[O-])cc2Cl)CCN1S(C)(=O)=O (stereo not drawn),–,"inconclusive [inhibitor, partial curve]"
Clc1ccc(-c2nc3ccccc3nc2-c2ccccc2)cc1,–,active: 20.6 µM
OCc1ccccc1-c1cccc2nccn12,–,"inconclusive [inhibitor, single point]"
Cc1ccc(C(=O)NNC(=S)Nc2cccc3ccccc23)s1,–,"inconclusive [inhibitor, full curve, poor fit]"
O=C(NCCN1C(=O)S/C(=C\c2ccc(F)cc2)C1=O)c1cccc(S(=O)(=O)N2CCOCC2)c1,–,active: 16.4 µM
Cc1ccc(NC(=O)CSCC(=O)N2CCOCC2)cc1,inactive: -23.6%,–
Cc1nc(-c2cccc(F)c2)sc1CCNC(=O)c1c(F)cccc1Cl,–,"inconclusive [inhibitor, single point]"

SMILES,"activity change, negative = growth inhibition",Potency
Cc1ccccc1NC(=O)CNC(=O)Cc1cccc2ccccc12,inactive: 6.3%,–
Cc1ccn2cc(-c3cccc(NS(C)(=O)=O)c3)nc2c1,inactive: -24.1%,–
O=S(=O)(c1cccc(-c2nc3ccccc3s2)c1)N1CCOCC1,inactive: -17.6%,–
Cc1cccc(C)c1NC(=O)COC(=O)c1cccc2c1C(=O)c1ccccc1C2=O,–,active: 8.2 µM
Cc1cc(C)cc(NC(=O)c2cccc(NC(=O)C3C4CC5OC(=O)C3C5C4)c2)c1 (stereo not drawn),inactive: 0.379%,–
S=C(NCCc1ccccc1)N1CCC2CC1c1c(Cl)cccc12 (stereo not drawn),–,active: 16.4 µM
Clc1ccccc1N1CCN(Cc2c[nH]c3ccccc23)CC1,–,active: 5.17 µM
Cc1cc(C2(c3ccc(O)c(C)c3)C(=O)Nc3ccccc32)ccc1O,–,"inconclusive [inhibitor, single point]"
CC1S/C(=N\N=C\c2cccc([N+](=O)[O-])c2)N(C(C)(C)C)C1=O (stereo not drawn),–,"inconclusive [inhibitor, single point]"
CCN(CC)S(=O)(=O)c1ccc2nc(COC(=O)c3n[nH]c4ccccc34)[nH]c2c1,inactive: -17.7%,–
Nc1ccc(Oc2ccc3nc(-c4ccccc4)c(-c4ccc([N+](=O)[O-])cc4)nc3c2)cc1,–,"inconclusive [inhibitor, partial curve]"
COc1cccc(-n2sc3c(c2=S)-c2cc(OC)ccc2NC3(C)C)c1,–,"inconclusive [inhibitor, single point]"
CCN(CC)CCCNc1ncnc2ccccc12,inactive: 0.558%,–
CCCCCCCCCCCCCCCC(=O)OCC1OC(n2ccc(N)nc2=O)C(O)C1O (stereo not drawn),–,active: 0.651 µM
Nc1nonc1C(=O)NCCNS(=O)(=O)c1ccc(Br)cc1,inactive: -26.9%,–
O=C(N1CCOCC1)N1CCN(S(=O)(=O)c2cccc([N+](=O)[O-])c2)CC1,inactive: 19.8%,–
Cc1ccc(OCC(=O)Nc2nonc2-c2ccc(C)c(C)c2)cc1C,–,"inconclusive [inhibitor, single point]"
CCOc1ccc(NC(=O)CN(c2cccc(C(F)(F)F)c2)S(C)(=O)=O)cc1,–,"inconclusive [inhibitor, single point]"
CCOC(=O)c1c(N)sc2c1CCC(CC)C2 (stereo not drawn),inactive: -15.7%,–
Cc1ccc(N(C(=O)c2csnn2)C(C(=O)NC2CCCCC2)c2ccco2)cc1 (stereo not drawn),inconclusive: -37% [inhibitor],–
CCOC(=O)C1CCCN(C(=O)COc2ccc(C(=O)c3ccc(F)cc3)cc2)C1 (stereo not drawn),–,"inconclusive [inhibitor, single point]"
CCCCOP(=O)(OCCCC)C(Nc1ccccc1)c1ccc2c(c1)OCO2 (stereo not drawn),–,active: 13 µM
Cc1cc(C)cc(NC(=O)c2cccn2-c2ncc(C(F)(F)F)cc2Cl)c1,–,"inconclusive [inhibitor, partial curve]"
